In ChEMBL document CHEMBL5606460, “ASAP - DENV-2 NS2B-NS3 protease fluorescence single point” (2024):
Among all 2,000 compounds or so, about 110 (5.5%) showed an effect of 50% or more. The list shows a part of the results.

Biological target: Genome polyprotein (dengue virus type 2) (UniProt P29990)
[1] = Thailand/16681/1984, Concentration 25.0 uM, Number of replicates 1.0

Structure (SMILES): Cc1cc(CO)c2cccc(Cc3ccccc3NC(=O)c3cc(C(=O)O)[nH]n3)c2n1
- inhibition (Thailand/16681/1984, Concentration 49.95 uM, Number of replicates 2.0, Standard deviation 1.2109368674878396 %): 2.16%
- inhibition (Thailand/16681/1984, Concentration 99.9 uM, Number of replicates 2.0, Standard deviation 1.1250841585396334 %): 10.9%

Structure (SMILES): Cc1cccc(N2CCN(C(=O)C3CCN(c4ccc(C=O)cc4)CC3)CC2)n1
- inhibition [1]: 16.5%

Structure (SMILES): O=Cc1ccc(N2CCC(C(=O)Nc3cccc4c(=O)[nH][nH]c(=O)c34)CC2)cc1
- inhibition [1]: 16%

Structure (SMILES): N#Cc1cccc(-c2nc3c(C(=O)Nc4ccncc4)cc(Cl)cc3[nH]2)c1
- inhibition (Thailand/16681/1984, Concentration 99.5 uM, Number of replicates 2.0, Standard deviation 0.8007493235576281 %): 6.92%
- inhibition (Thailand/16681/1984, Concentration 295.6 uM, Number of replicates 2.0, Standard deviation 3.318711635404566 %): 36.2%

Structure (SMILES): C[C@H](NC(=O)C1CCN(c2ccc(C=O)cc2)CC1)c1ccc2c(c1)OCCCO2
- inhibition [1]: 14%

Structure (SMILES): N#Cc1c(Cl)cccc1NC(=O)C1CCN(c2ccc(C=O)cc2)CC1
- inhibition [1]: 14.4%

Structure (SMILES): CCn1ccnc(N2CC[C@H](C#N)C2)c1=O
- inhibition (Thailand/16681/1984, Concentration 50.0 uM, Number of replicates 2.0, Standard deviation 0.9992596313447866 %): 7.72%
- inhibition (Thailand/16681/1984, Concentration 100.0 uM, Number of replicates 2.0, Standard deviation 0.8098574261082263 %): 16.8%
- inhibition (Thailand/16681/1984, Concentration 200.0 uM, Number of replicates 2.0, Standard deviation 0.40329611273019517 %): 29.7%

Structure (SMILES): Cc1cc(N)c2cccc(Cl)c2n1
- inhibition (Thailand/16681/1984, Concentration 49.95 uM, Number of replicates 2.0, Standard deviation 5.503288371579723 %): -4.7%
- inhibition (Thailand/16681/1984, Concentration 99.9 uM, Number of replicates 2.0, Standard deviation 6.432020014535411 %): -3.67%

Structure (SMILES): O=Cc1ccc(N2CCC(C(=O)N3C[C@@H]4C[C@H](C3)c3cccc(=O)n3C4)CC2)cc1
- inhibition [1]: 12.4%

Structure (SMILES): CCc1cc(Br)ccc1NC(=O)C1CCN(c2ccc(C=O)cc2)CC1
- inhibition [1]: 14.5%

Structure (SMILES): Cc1cnccc1NC(=O)c1cccc(-c2nccs2)c1
- inhibition (Thailand/16681/1984, Concentration 49.5 uM, Number of replicates 2.0, Standard deviation 4.204363846532359 %): -3.63%
- inhibition (Thailand/16681/1984, Concentration 99.01 uM, Number of replicates 2.0, Standard deviation 2.2108405026778724 %): -0.191%
- inhibition (Thailand/16681/1984, Concentration 198.0 uM, Number of replicates 2.0, Standard deviation 1.9886941158052591 %): 0.611%

Structure (SMILES): CC(C)(CO)NC(=O)c1cc(Cl)cc(NC(=O)Cc2cccnc2)c1
- inhibition (Thailand/16681/1984, Concentration 49.5 uM, Number of replicates 2.0, Standard deviation 2.592685808271054 %): -2.73%
- inhibition (Thailand/16681/1984, Concentration 99.01 uM, Number of replicates 2.0, Standard deviation 0.26050899629625984 %): -2.67%
- inhibition (Thailand/16681/1984, Concentration 198.0 uM, Number of replicates 2.0, Standard deviation 0.9505923281944691 %): -2.17%

Structure (SMILES): CN(Cc1cccc(F)c1F)C(=O)C1CCN(c2ccc(C=O)cc2)CC1
- inhibition [1]: 14.5%

Structure (SMILES): CC(=O)N[C@H](C(=O)Nc1cccc(C(N)=O)c1)c1ccc(OCc2ccccc2)cc1
- inhibition (Thailand/16681/1984, Concentration 49.5 uM, Number of replicates 2.0, Standard deviation 1.41100239398505 %): -2.21%
- inhibition (Thailand/16681/1984, Concentration 99.01 uM, Number of replicates 2.0, Standard deviation 6.402498423083348 %): 0.486%
- inhibition (Thailand/16681/1984, Concentration 198.0 uM, Number of replicates 2.0, Standard deviation 5.599350943845451 %): 0.73%

Structure (SMILES): O=Cc1ccc(N2CCC(C(=O)N3CCC(c4ccncc4)CC3)CC2)cc1
- inhibition [1]: 14.2%

Structure (SMILES): Cc1cc(CO)c2cccc(CC(=O)N3CCO[C@@H](CN)C3)c2n1
- inhibition (Thailand/16681/1984, Concentration 49.95 uM, Number of replicates 2.0, Standard deviation 2.313340500291457 %): -1.6%
- inhibition (Thailand/16681/1984, Concentration 99.9 uM, Number of replicates 2.0, Standard deviation 6.901214410786329 %): 6.49%

Structure (SMILES): c1ccc2c([C@H]3CCN(Cc4ccn[nH]4)C3)c[nH]c2c1
- inhibition (Thailand/16681/1984, Concentration 49.5 uM, Number of replicates 2.0, Standard deviation 1.3804677608821805 %): -4.83%
- inhibition (Thailand/16681/1984, Concentration 99.01 uM, Number of replicates 2.0, Standard deviation 0.8353970676066758 %): -4.86%
- inhibition (Thailand/16681/1984, Concentration 198.0 uM, Number of replicates 2.0, Standard deviation 1.6563547935009133 %): -3.79%

Structure (SMILES): O=Cc1ccc(N2CCC(C(=O)Nc3nnc(C(F)(F)F)s3)CC2)cc1
- inhibition [1]: 12.7%

Structure (SMILES): O=Cc1ccc(N2CCC(C(=O)N[C@H](CO)[C@H](O)c3ccc([N+](=O)[O-])cc3)CC2)cc1
- inhibition [1]: 13.1%

Structure (SMILES): O=Cc1ccc(N2CCC(C(=O)NCCNC(=O)c3ccc(F)cc3)CC2)cc1
- inhibition [1]: 14.8%

Structure (SMILES): CC(C)Nc1nc2ccc(C(=O)NCc3cnn(C)c3)cc2[nH]1
- inhibition (Thailand/16681/1984, Concentration 49.5 uM, Number of replicates 2.0, Standard deviation 2.4534347281334856 %): -3.32%
- inhibition (Thailand/16681/1984, Concentration 99.01 uM, Number of replicates 2.0, Standard deviation 2.252490861313308 %): -2.73%
- inhibition (Thailand/16681/1984, Concentration 198.0 uM, Number of replicates 2.0, Standard deviation 1.9859869815785558 %): -2.52%

Structure (SMILES): CNC(=O)C1(CNS(=O)(=O)c2ccc(Oc3ccccc3Cl)cc2)CCCC1
- inhibition (Thailand/16681/1984, Concentration 49.5 uM, Number of replicates 2.0, Standard deviation 0.8825067918234245 %): -2.79%
- inhibition (Thailand/16681/1984, Concentration 99.01 uM, Number of replicates 2.0, Standard deviation 1.1142183638187368 %): -1.51%
- inhibition (Thailand/16681/1984, Concentration 198.0 uM, Number of replicates 2.0, Standard deviation 0.3423230124618678 %): 0.279%

Structure (SMILES): Cc1cc(CO)c2cccc(Cc3cccc(NC(=O)c4nc(C5CCNCC5)oc4C)c3)c2n1
- inhibition (Thailand/16681/1984, Concentration 49.95 uM, Number of replicates 2.0, Standard deviation 2.427412589513284 %): -2.68%
- inhibition (Thailand/16681/1984, Concentration 99.9 uM, Number of replicates 2.0, Standard deviation 2.040383474434353 %): -3.1%

Structure (SMILES): O=Cc1ccc(N2CCC(C(=O)N(Cc3ccc4c(c3)OCO4)C3CCCC3)CC2)cc1
- inhibition [1]: 15.8%

Structure (SMILES): c1ccc2c([C@H]3CCN(Cc4cn[nH]c4)C3)c[nH]c2c1
- inhibition (Thailand/16681/1984, Concentration 49.5 uM, Number of replicates 2.0, Standard deviation 0.9115794139717239 %): -0.8%
- inhibition (Thailand/16681/1984, Concentration 99.01 uM, Number of replicates 2.0, Standard deviation 0.44265802393203485 %): -0.949%
- inhibition (Thailand/16681/1984, Concentration 198.0 uM, Number of replicates 2.0, Standard deviation 0.8695579523351499 %): 0.351%
